In all, about 33,000 sequences were measured (“E-score (-0.5 to 0.5)”: median about -0.054, highest 2% from about 0.35 on). Some of the results follow.

In the experiment the target is T1, Stb5 (UniProt P38699).
T1 sequence: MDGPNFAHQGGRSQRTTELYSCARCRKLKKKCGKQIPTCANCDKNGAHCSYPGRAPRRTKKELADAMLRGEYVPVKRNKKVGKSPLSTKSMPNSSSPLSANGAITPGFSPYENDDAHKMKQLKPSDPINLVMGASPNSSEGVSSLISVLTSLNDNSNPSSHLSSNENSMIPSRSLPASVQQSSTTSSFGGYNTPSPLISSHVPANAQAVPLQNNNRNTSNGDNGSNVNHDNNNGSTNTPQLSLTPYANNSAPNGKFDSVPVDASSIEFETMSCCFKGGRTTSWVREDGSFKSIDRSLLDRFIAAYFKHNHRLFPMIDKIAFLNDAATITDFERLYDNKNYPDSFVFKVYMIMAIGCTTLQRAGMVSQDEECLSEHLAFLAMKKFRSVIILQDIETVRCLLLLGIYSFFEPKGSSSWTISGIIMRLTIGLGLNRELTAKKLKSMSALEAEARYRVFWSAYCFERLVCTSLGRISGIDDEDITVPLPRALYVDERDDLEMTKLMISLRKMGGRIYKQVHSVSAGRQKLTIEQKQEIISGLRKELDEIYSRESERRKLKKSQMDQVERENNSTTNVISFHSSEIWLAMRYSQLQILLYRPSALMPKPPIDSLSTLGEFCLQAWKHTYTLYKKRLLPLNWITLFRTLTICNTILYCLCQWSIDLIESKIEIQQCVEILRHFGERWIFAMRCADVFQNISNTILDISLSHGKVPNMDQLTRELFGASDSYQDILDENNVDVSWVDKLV
Description: PBM E-score (8-mer binding enrichment) (E-score (-0.5 to 0.5)); higher = stronger / more preferred TF binding; most listed sequences are background and not binding sites. To be noted: protein concentration: 200 nM; construct: GST-full length. In short, it runs like this:
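Universal all-10-mer Agilent arrays, double-stranded by primer extension on fresh or once-stripped slides, were probed with about 100-200 nM GST-tagged yeast transcription factors made by PURExpress. Fluorescent anti-GST detected bound protein, and masliner normalised the scans. E-scores from the Universal PBM Analysis Suite were given to each ungapped eight-base word pooled with its reverse complement.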
On to GAGAAACC, for which the “PBM E-score” value turned out to be 0.116.

Turning to ACCTATGG, the “PBM E-score” value is -0.128. For CTATCCCA the value was -0.183. For the sequence AGACGAGG, the “PBM E-score” value was -0.101. As for CCTCCTTA, the “PBM E-score” value is -0.215. For AGTAATTA the value was -0.159; for ACTGTTCG, -0.0486. As for ATAACGCC, the “PBM E-score” value was 0.359. Take AACTCTTC: the “PBM E-score” value was -0.102. For TAAACGTA the value was -0.195; for ATCGCGTA, -0.0676; for ACGTGTGA, -0.186. For AACCGGTG the value was 0.306; for CAACTGAG, -0.139; for CGGTCAAC, 0.152.

Turning to GACAACCA, the “PBM E-score” value was -0.00208. As for TAGCGCCA, the “PBM E-score” value came to 0.00668.

ACTTCAGA: the “PBM E-score” value was -0.112. Then AGACGCCG, with 0.399. With GAAGCCGA, the “PBM E-score” value came to 0.0721. Consider TAGGGATA, for which the “PBM E-score” value is -0.0265.

Regarding GGCATCGA, the “PBM E-score” value was -0.171. For CGGCCCAC the value was -0.00644; for CCCTCCGC, 0.0578; for AATACACA, -0.143. In the case of ATGTGGAA, the “PBM E-score” value is -0.129.

Turning to GGAATAAC, the “PBM E-score” value amounted to 0.177. Consider CTGGTTAA, for which the “PBM E-score” value is -0.102. Then CCTCTTAG, with 0.0232; and CGGCACCC, with 0.11. For CCGGTCAA, the “PBM E-score” value was found to be 0.26. Then CATCGCGA, with 0.00349; and CAAGACTC, with -0.152; and AGCTCAAA, with -0.0103. Then GGAGGAAC, with -0.0563; and CGGTCAAA, with 0.24; and ATAAGGCG, with -0.00531.

As for AGGCTTGA, the “PBM E-score” value is -0.263.

ATCTCAAG: the “PBM E-score” value is -0.22.

Regarding CGACGTGA, the “PBM E-score” value was 0.0691. Then ATAGTTGC, with -0.0188; and CAGGTGGC, with -0.216. Then TACAGAAA, with -0.202; and CGTAGTCA, with -0.211; and CGACCTCC, with 0.0816. For ACTTGAAT, the “PBM E-score” value was -0.205. Then ACCAGCCG, with 0.00985. Then GAGGATAC, with -0.184. Then CCAGTTCA, with -0.0663; and AATCATTA, with -0.121; and CCTCAGTA, with -0.247. For the sequence AGTCAATG, the “PBM E-score” value is -0.0736. Then CTAAATAG, with -0.0747; and GATCGGGA, with 0.251.

Consider CCTGTGTC, for which the “PBM E-score” value is 0.0263.

Consider AGGGGAAG, for which the “PBM E-score” value is -0.27. Turning to CGTAGTAC, the “PBM E-score” value came out at 0.0304. As for ATCAGCGC, the “PBM E-score” value was determined as 0.231.

Turning to GCCTCCGA, the “PBM E-score” value was found to be 0.124. For AGACACTG the value was -0.3; for CCGCTCAA, 0.219. For CTGCATCA the value was -0.327.

With CCTACTTC, the “PBM E-score” value is -0.244.

For the sequence AAAGGGGT, the “PBM E-score” value is -0.188. AACAACGG: the “PBM E-score” value was determined as 0.24.

As for ATATACAC, the “PBM E-score” value is -0.0737. Then GTACCGAA, with 0.145. Then ACCGTACC, with 0.109. Then GGGATCGA, with -0.029. As to ACGAATTC, the “PBM E-score” value was -0.1. Then CGCACCAA, with 0.0669; and CTGGGAGA, with -0.253. Then CAGCCCCC, with -0.277; and AGCTGGGG, with -0.232; and CCCCCGGC, with 0.203.

Take GATCCCGA: the “PBM E-score” value amounted to 0.247. Then ATATGGAG, with 0.207; and GTAAGGCA, with -0.15; and AGGTCCCG, with 0.196. As for GTCCATCA, the “PBM E-score” value is -0.0772. Then CACGGCTG, with -0.146; and GACAACTC, with -0.0305; and CCATGGTC, with -0.179.

As to ACCCCCTC, the “PBM E-score” value was -0.265. Consider ATGCAGAG, for which the “PBM E-score” value was -0.227. With ATGGCGAA, the “PBM E-score” value is -0.099.

(Values after the supplement of paper PMC3334620.)
